In the assay the target is Acetylcholinesterase (electric eel EC 3.1.1.7); AChE (Electrophorus electricus, UniProt O42275). The assay can be described thus: biochemical.

Drawing on article PMC3718625, “Acetyl and butyryl cholinesterase inhibitory sesquiterpene lactones from Amberboa ramosa” (Chemistry Central Journal, 2013), this text covers IC50 for 2 compounds.

`CC(=O)O[C@H]1C[C@@](C)(OC(CO)CO)[C@@H]2CC=C(C)[C@@H]2[C@H]2OC(=O)[C@@H](C)[C@@H]21` [compound 1, 8α-Acetoxy-10α-(1,3-dihydroxy-2-propyl)-1 α H, 5α H, 6β H, 7α H, 11 β H, 11α-methylguaia-3-enolide]: the midpoint of inhibition, the IC50, lay at 1.1 ± 0.08 µM. Regarding `CC(=O)O[C@H]1C[C@@](C)(O)[C@@H]2CC=C(C)[C@@H]2[C@H]2OC(=O)[C@@H](C)[C@@H]21` [compound 3, Amberbin A], the IC50 (usually the point on the concentration scale where inhibition reaches its midpoint) was 8.6 ± 0.15 µM.
